{
  "source": "PubChem BioAssay AID463173",
  "about": "(ICCB-Longwood Screening Facility, Harvard Medical School, 2010)",
  "note": "The whole screen tested about 52,000 compounds, of which about 1,700 (3.3%) were called active. Cut-off read from the data, not from the text of the source: active = survival mostly below about 52% (no sharp cut-off); inactive = mostly above about 56%. This is one part of the list.",
  "data": [
    {"test_system": "Wild type", "experiment": "S. aureus survival, RN4220 and DeltatarO strains – OD600, teichoic acid synthesis inhibitors, primary screen (AID 463173)", "conditions": "S. aureus RN4220 wild type/DeltatarO growth, OD600, 18 h, hits give low values, screened at 18.75 µg/mL (by protocol)", "values": [
      {"compound": "CCCOc1ccc(NC(=O)CC2C(=O)N(c3cccc(C)c3)C(=O)N2CCc2ccncc2)cc1", "note": "(centres undefined)", "survival": "inactive: 94%"},
      {"compound": "CCOc1ccc(-c2cc(C(=O)NCc3ccc(OC)cc3)c3c(-c4ccc(F)cc4)[nH]nc3n2)cc1", "survival": "inactive: 73%"},
      {"compound": "O=C(NCc1ccco1)c1cc(-c2ccccc2)on1", "survival": "inactive: 118%"},
      {"compound": "CN1CCN(Cc2c(O)ccc3cc(-c4ccccc4)c(=O)oc23)CC1", "survival": "inactive: 119%"},
      {"compound": "Cc1cccc(-c2nc(N3CCN(c4ccc(F)cc4)CC3)c3ccccc3n2)c1", "survival": "inactive: 64%"},
      {"compound": "COc1ccc(Nc2nc3c(S(=O)(=O)c4ccccc4)nnn3c3ccc(Cl)cc23)cc1OC", "survival": "inactive: 133%"},
      {"compound": "CCOC(=O)c1cccc(NC(=O)c2cc3c(=O)n(Cc4cccnc4)ccc3nc2C)c1", "survival": "inactive: 128%"},
      {"compound": "CCCCCn1c(=O)[nH]c2cc(C(=O)N3CCN(c4ccccc4F)CC3)ccc2c1=O", "survival": "inactive: 74%"},
      {"compound": "Cc1ccc(-n2ncc3c(NCCCn4ccnc4)ncnc32)cc1", "survival": "inactive: 71%"},
      {"compound": "CCOC(=O)c1[nH]c2ccccc2c1NC(=O)c1ccc(OCC)cc1", "survival": "inactive: 85%"},
      {"compound": "CCN1CCN(CCCNC(=O)c2cnn(-c3ccc(C)cc3)c2C2CCN(C(=O)OC(C)(C)C)CC2)CC1", "survival": "inactive: 91%"},
      {"compound": "Cc1ccc(NC(=O)c2cc(-c3cccs3)on2)cc1C", "survival": "inactive: 82%"},
      {"compound": "CC1CCCC(C)N1C(=O)CN1CCC(N2CCCCC2)CC1", "note": "(centres undefined)", "survival": "inactive: 101%"},
      {"compound": "CN(C(=O)c1cnn2c(C(F)F)cc(-c3ccccc3)nc12)C1CCCCC1", "survival": "inactive: 110%"},
      {"compound": "COc1ccc(S(=O)(=O)NCCS(=O)(=O)N2CCN(c3ccccc3F)CC2)cc1", "survival": "inactive: 127%"},
      {"compound": "Cc1sc2ncn(C(C)C(=O)OC3CCCCC3)c(=O)c2c1C", "note": "(centres undefined)", "survival": "inactive: 97%"},
      {"compound": "c1csc(-c2nc3ccccn3c2Nc2ccc3c(c2)OCCO3)c1", "survival": "inactive: 70%"},
      {"compound": "COc1cccc(-n2c(SCC(=O)Nc3ccc(F)cc3F)nc3c([nH]c4ccccc43)c2=O)c1", "survival": "inactive: 124%"},
      {"compound": "CCCCOC(=O)c1ccc(NC(=O)CSc2nc3c(c(=O)[nH]2)CCC3)cc1", "survival": "inactive: 87%"},
      {"compound": "CC(=O)c1ccc(N2CCN(c3ncnc4onc(-c5ccc(Cl)cc5)c34)CC2)cc1", "survival": "inactive: 84%"},
      {"compound": "COc1ccccc1CNC(=O)c1cccc(NC(=O)N2CCSc3ncccc32)c1", "survival": "inactive: 77%"},
      {"compound": "COc1cc(-c2nc3cccc(C)n3c2Nc2ccc3c(c2)OCCO3)ccc1O", "survival": "inactive: 75%"},
      {"compound": "Oc1c(C(c2ccc(Cl)cc2)N2CCCC2)sc2nc(-c3ccco3)nn12", "note": "(centres undefined)", "survival": "inactive: 22%"},
      {"compound": "CCOc1ccccc1C(=O)NCC(c1ccc(N(C)C)cc1)N1CCc2ccccc21", "note": "(centres undefined)", "survival": "inactive: 75%"},
      {"compound": "COc1ccc(CCNC(=O)c2ccc(Cn3c(=O)c4ccccc4n(Cc4ccccc4Cl)c3=O)cc2)cc1OC", "survival": "inactive: 95%"},
      {"compound": "COC(=O)c1c(-c2ccc(Cl)cc2)noc1N1CCN(c2cccc(OC)c2)CC1", "survival": "inactive: 73%"},
      {"compound": "CCOc1cc(-c2ccc(OC(=O)c3ccc(Cl)cc3)c(OC)c2)cc(=O)c2c(C)oc(C)c12", "survival": "inactive: 63%"},
      {"compound": "NC(=O)CC1SC(N)=NC1=O", "note": "(centres undefined)", "survival": "inactive: 97%"},
      {"compound": "CCc1c(C)nc2[nH]nc(NC(=O)C(F)(F)F)n2c1=O", "survival": "inactive: 108%"},
      {"compound": "Cc1nnc(N2C(=O)c3oc4ccccc4c(=O)c3C2c2ccc(F)cc2)s1", "note": "(centres undefined)", "survival": "inactive: 79%"},
      {"compound": "COc1cc(N(C(=O)c2cnccn2)C(C(=O)NCc2ccccc2)c2cccs2)ccc1-n1cnnn1", "note": "(centres undefined)", "survival": "inactive: 111%"},
      {"compound": "Cc1c(C(=O)NCc2ccc(F)cc2)sc2nc(-c3ccccc3)cn12", "survival": "inactive: 143%"},
      {"compound": "Cc1cccc(NC(=O)CN(C)S(=O)(=O)c2cnc[nH]2)c1C", "survival": "inactive: 75%"},
      {"compound": "O=C(Cc1ccc(NC(=O)N2CCCCc3ccccc32)cc1)Nc1ccccc1Br", "survival": "inactive: 89%"},
      {"compound": "Cc1ccc(Cl)cc1NC(=O)c1cc(-c2ccc3c(c2)OCCO3)on1", "survival": "inactive: 67%"},
      {"compound": "Cc1cc(C)c(NC(=O)CN2C(=O)CCn3nc(-c4cccn4C)cc32)c(C)c1", "survival": "inactive: 67%"},
      {"compound": "Cc1ccc(-n2ncc(C(=O)NCCCN3CCN(C)CC3)c2C2CCN(C(=O)OC(C)(C)C)CC2)cc1", "survival": "inactive: 72%"},
      {"compound": "Cc1ccccc1CN1c2ccccc2-c2nc(SCC(=O)Nc3cc(F)ccc3F)ncc2S1(=O)=O", "survival": "inactive: 85%"},
      {"compound": "CCCCNc1cc(N2CCN(C3CCCCC3)CC2)c2noc3c2c1C(=O)c1ccccc1-3", "survival": "active: -1%"},
      {"compound": "CCCCC(=O)N1CCN(c2nc3c(C)c(C)ccc3s2)CC1", "survival": "inactive: 64%"},
      {"compound": "O=C(NCC1CCCO1)C1CC(=O)N(c2ccccc2)C1", "note": "(centres undefined)", "survival": "inactive: 123%"},
      {"compound": "Cc1cc(C)c(NC(=O)CSc2cn(CC(=O)N3CCOCC3)c3ccccc23)c(C)c1", "survival": "inactive: 103%"},
      {"compound": "CCOc1ccc(NC(=O)c2oc3ccccc3c2NC(=O)Cc2cccs2)cc1", "survival": "inactive: 78%"},
      {"compound": "CCN1CCN(C(=O)c2ccc3c(c2)N(Cc2ccc(Cl)cc2)C(=O)c2ccccc2S3=O)CC1", "note": "(centres undefined)", "survival": "inactive: 84%"},
      {"compound": "CCc1ccc(Cn2c(CNS(=O)(=O)c3ccc4c(c3)CCCC4)nc3cccnc32)cc1", "survival": "inactive: 66%"},
      {"compound": "COc1cccc(Cn2c(=O)n(CC3CCC(C(=O)N4CCOCC4)CC3)c(=O)c3sccc32)c1", "note": "(centres undefined)", "survival": "inactive: 135%"},
      {"compound": "Cc1oc2ncn(CC(C)C)c(=O)c2c1C(=O)NCCCN1CCCCC1C", "note": "(centres undefined)", "survival": "inactive: 72%"},
      {"compound": "Cc1cc(C)c2c(n1)SCC(=O)N2CC(=O)Nc1cccc(C)c1C", "survival": "inactive: 76%"},
      {"compound": "CCc1ccc2c(c1)c(=O)c(C(=O)c1ccc(C)cc1)cn2CC(=O)Nc1ccccc1C", "survival": "inactive: 71%"},
      {"compound": "O=C(NC1CCCCC1)C(c1ccco1)N(Cc1cccs1)C(=O)C(F)(F)F", "note": "(centres undefined)", "survival": "inactive: 103%"},
      {"compound": "CCc1ccc2c(c1)c(=O)c(C(=O)c1ccccc1)cn2CC(=O)Nc1ccc(C)c(Cl)c1", "survival": "inactive: 75%"},
      {"compound": "COc1ccc(-c2nnc(SCC(=O)NCCc3ccccc3)nc2-c2ccc(OC)cc2)cc1", "survival": "inactive: 70%"},
      {"compound": "Cc1cccc(C)c1OCC(=O)Nc1c(C(=O)c2ccccc2)oc2ccccc12", "survival": "inactive: 70%"},
      {"compound": "CCc1ccccc1NC(=O)c1ncoc1-c1ccco1", "survival": "inactive: 89%"},
      {"compound": "COc1ccc(-c2c(C)nn3c(-c4ccccc4)cc(-c4ccccc4)nc23)cc1", "survival": "inactive: 122%"},
      {"compound": "Cc1ccc(NC(=O)CSc2nc3nccnc3c(=O)n2CCc2c[nH]c3ccccc23)c(C)c1", "survival": "inactive: 78%"},
      {"compound": "CCc1ccc(C(=O)c2cn(CC(=O)Nc3ccc(OC)cc3)c3cc4c(cc3c2=O)OCCO4)cc1", "survival": "inactive: 89%"},
      {"compound": "C=CCN1C(=O)C(C(=O)O)C(=O)c2ccccc21", "note": "(centres undefined)", "survival": "inactive: 74%"},
      {"compound": "O=C(Nc1ccc(OC(F)(F)F)cc1)C(NS(=O)(=O)c1cccc2nsnc12)c1ccccc1", "note": "(centres undefined)", "survival": "inactive: 62%"},
      {"compound": "Cc1cc(SCC(=O)Nc2ccc(C(F)(F)F)cc2)nc(=O)[nH]1", "survival": "inactive: 70%"},
      {"compound": "Cc1ccc(C)c(N2CCN(C(=O)c3cccn4c(=O)c5ccccc5nc34)CC2)c1", "survival": "inactive: 85%"},
      {"compound": "CCCCOC(=O)c1ccc(NC(=O)c2cc(=O)c3ccccc3o2)cc1", "survival": "inactive: 93%"},
      {"compound": "CCOc1ccc(NC(=O)c2ncn(-c3ccccc3)n2)cc1", "survival": "inactive: 91%"},
      {"compound": "CCn1nnc(NC(=O)C(C)(c2ccccc2)c2ccccc2)n1", "survival": "inactive: 109%"},
      {"compound": "Cc1ccc(-c2nnn3c2nc(N2CCC(C)CC2)c2ccccc23)cc1", "survival": "active: -2%"},
      {"compound": "Cc1cnc2c(c1)N1CCC2CC1", "survival": "inactive: 108%"},
      {"compound": "Cc1ccc(OCCSc2nc3ccccc3n2CC(=O)NC(C)C)cc1", "survival": "inactive: 94%"},
      {"compound": "O=C1CSC2(C(=O)N(Cc3c(F)cccc3Cl)c3ccccc32)N1c1ccc(F)c(F)c1", "note": "(centres undefined)", "survival": "inactive: 83%"},
      {"compound": "O=C(CSc1ncc2c(n1)-c1cc(Cl)ccc1N(Cc1ccccc1)S2(=O)=O)NCc1ccccc1", "survival": "inactive: 70%"},
      {"compound": "Fc1ccc(Nc2c(-c3c[nH]c4ccccc34)nc3ccccn23)cc1", "survival": "inactive: 72%"},
      {"compound": "Cc1ccc(C(=O)Nc2nnc(S(=O)(=O)N3CCCc4ccccc43)s2)cc1", "survival": "inactive: 36%"},
      {"compound": "CCOc1ccc(S(=O)(=O)NCCc2csc3nc(-c4cccc(C)c4)nn23)cc1", "survival": "inactive: 77%"},
      {"compound": "COCCCNC(=O)C1CCN(C(=O)c2cc3sccc3n2Cc2ccc(Cl)cc2)CC1", "survival": "inactive: 74%"},
      {"compound": "Cc1cccc(CSc2ccc3nnc(CCNS(=O)(=O)c4ccccc4)n3n2)c1", "survival": "inactive: 79%"},
      {"compound": "COc1ccc(CCNC(=O)c2ccc(CSCc3ccc(C)cc3)o2)cc1OC", "survival": "inactive: 75%"},
      {"compound": "COc1ccc(C(=O)Nc2ccc3nc(N4CCCCC4)cc(C)c3c2)cc1OC", "survival": "inactive: 62%"},
      {"compound": "Cc1nc2c(C(=O)NCCc3ccccc3)c[nH]n2c(=O)c1Cc1ccccc1F", "survival": "active: -15%"},
      {"compound": "COc1cccc(C(=O)Nc2ccc(C(=O)OCc3cc(=O)n4cc(C)sc4n3)cc2)c1", "survival": "inactive: 53%"},
      {"compound": "O=S(=O)(c1ccc(Cl)cc1)N1CCC(c2ccncc2)CC1", "survival": "inactive: 80%"},
      {"compound": "O=C(Nc1nnc(S(=O)(=O)N2CCOCC2)s1)c1cccc(Br)c1", "survival": "inactive: 51%"},
      {"compound": "NC(=O)Cn1c(-c2nonc2N)nc2ccccc21", "survival": "inactive: 109%"},
      {"compound": "COc1cc(NS(=O)(=O)c2cc3c(cc2C)n(C)c(=O)c(=O)n3C)cc(OC)c1", "survival": "inactive: 54%"},
      {"compound": "CCC(Sc1ccc2nnc(CCNS(=O)(=O)c3ccc(OC)cc3)n2n1)C(=O)OC", "note": "(centres undefined)", "survival": "inactive: 84%"},
      {"compound": "Cc1ccc(-c2cc3ncc4c(n3n2)-c2ccccc2OC4)cc1", "survival": "inactive: 76%"},
      {"compound": "COc1cc(NC(=O)NCCn2nnc3cc(S(=O)(=O)N(C)C)ccc32)cc(OC)c1OC", "survival": "inactive: 56%"},
      {"compound": "COc1cc(NC(=O)c2cc3cc4ccc(OC)c(Cl)c4nc3s2)cc(OC)c1", "survival": "inactive: 73%"},
      {"compound": "O=C(OCc1ccc(Cl)cc1Cl)c1ccncc1", "survival": "inactive: 107%"},
      {"compound": "C=CCN1C(=O)C2(C(C#N)=C(N)Oc3n[nH]c(COC)c32)c2ccccc21", "note": "(centres undefined)", "survival": "inactive: 118%"},
      {"compound": "Cc1nc2ccc(S(=O)(=O)NCC(=O)Nc3ccc(C)c(Cl)c3)cc2s1", "survival": "inactive: 50%"}
    ]}
  ]
}
